Reference: the supplement of paper PMC8728848
The other results are listed elsewhere or left out.

Assays:
Assay in all cases: glycan array binding signal (z-score within array); higher = stronger binding
Settings in all cases: glycan notation: IUPAC condensed, linker removed
[1] = biological target: Gal(a1-3)Gal
How it was run: (§1)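 Glycan array data were curated from 3228 arrays in the Consortium for Functional Glycomics database and kept only where the protein sequence was available. Glycan names were converted to IUPAC-condensed notation, and columns mapping to the same glycan were averaged. The binding signal is a within-array Z-score, averaged across arrays of the same protein sequence at different concentrations or buffers and across linkers. Negative Z-scores can be read as non-binding.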

[2] = biological target: Gal(a1-3)Gal(b1-3)GlcNAc
How it was run: as §1

[3] = biological target: Gal(a1-3)Gal(b1-3)GlcNAc(b1-2)Man
How it was run: as §1

[4] = biological target: Gal(a1-3)Gal(b1-3)GlcNAc(b1-2)Man(a1-3)[Gal(a1-3)Gal(b1-3)GlcNAc(b1-2)Man(a1-6)]Man(b1-4)GlcNAc(b1-4)GlcNAc
How it was run: as §1

[5] = biological target: Gal(a1-3)Gal(b1-3)GlcNAc(b1-3)GalNAc
How it was run: as §1

[6] = biological target: Gal(a1-3)Gal(b1-3)GlcNAc(b1-6)GalNAc
How it was run: as §1

[7] = biological target: Gal(a1-3)Gal(b1-3)[Fuc(a1-4)]GlcNAc(b1-2)Man(a1-3)[Gal(a1-3)Gal(b1-3)[Fuc(a1-4)]GlcNAc(b1-2)Man(a1-6)]Man(b1-4)GlcNAc(b1-4)GlcNAc
How it was run: as §1

[8] = biological target: Gal(a1-3)Gal(b1-4)Glc
How it was run: as §1

[9] = biological target: Gal(a1-3)Gal(b1-4)GlcNAc
How it was run: as §1

[10] = biological target: Gal(a1-3)Gal(b1-4)GlcNAc(b1-2)Man
How it was run: as §1

[11] = biological target: Gal(a1-3)Gal(b1-4)GlcNAc(b1-2)Man(a1-3)[Gal(a1-3)Gal(b1-4)GlcNAc(b1-2)Man(a1-6)]Man(b1-4)GlcNAc(b1-4)GlcNAc
How it was run: as §1

[12] = biological target: Gal(a1-3)Gal(b1-4)GlcNAc(b1-3)GalNAc
How it was run: as §1

[13] = biological target: Gal(a1-3)Gal(b1-4)GlcNAc(b1-6)GalNAc
How it was run: as §1

[14] = biological target: Gal(a1-3)Gal(b1-4)[Fuc(a1-3)]GlcNAc
How it was run: as §1

[15] = biological target: Gal(a1-3)Gal(b1-4)[Fuc(a1-3)]GlcNAc(b1-2)Man(a1-3)[Gal(a1-3)Gal(b1-4)[Fuc(a1-3)]GlcNAc(b1-2)Man(a1-6)]Man(b1-4)GlcNAc(b1-4)GlcNAc
How it was run: as §1

[16] = biological target: Gal(a1-3)GalNAc
How it was run: as §1

[17] = biological target: Gal(a1-3)[Gal(a1-4)]Gal(b1-4)GlcNAc
How it was run: as §1

[18] = biological target: Gal(a1-4)Gal(b1-3)GlcNAc(b1-2)Man(a1-3)[Gal(a1-4)Gal(b1-3)GlcNAc(b1-2)Man(a1-6)]Man(b1-4)GlcNAc(b1-4)GlcNAc
How it was run: as §1

[19] = biological target: Gal(a1-4)Gal(b1-4)Glc
How it was run: as §1

[20] = biological target: Gal(a1-4)Gal(b1-4)GlcNAc
How it was run: as §1

[21] = biological target: Gal(a1-4)Gal(b1-4)GlcNAc(b1-2)Man(a1-3)[Gal(a1-4)Gal(b1-4)GlcNAc(b1-2)Man(a1-6)]Man(b1-4)GlcNAc(b1-4)GlcNAc
How it was run: as §1

[22] = biological target: Gal(a1-4)Gal(b1-4)GlcNAc(b1-3)Gal(b1-4)Glc
How it was run: as §1

[23] = biological target: Gal(a1-4)GlcNAc
How it was run: as §1

[24] = biological target: Gal(a1-6)Glc
How it was run: as §1

[25] = biological target: Gal(b1-2)Gal
How it was run: as §1

[26] = biological target: Gal(b1-3)Gal
How it was run: as §1

[27] = biological target: Gal(b1-3)Gal(b1-4)GlcNAc
How it was run: as §1

[28] = biological target: Gal(b1-3)GalNAc
How it was run: as §1

[29] = biological target: Gal(b1-3)GalNAc(a1-3)[Fuc(a1-2)]Gal(b1-4)Glc
How it was run: as §1

[30] = biological target: Gal(b1-3)GalNAc(a1-3)[Fuc(a1-2)]Gal(b1-4)GlcNAc
How it was run: as §1

[31] = biological target: Gal(b1-3)GalNAc(b1-3)Gal
How it was run: as §1

[32] = biological target: Gal(b1-3)GalNAc(b1-3)Gal(a1-4)Gal(b1-4)Glc
How it was run: as §1

[33] = biological target: Gal(b1-3)GalNAc(b1-4)Gal(b1-4)Glc
How it was run: as §1

[34] = biological target: Gal(b1-3)GalNAc(b1-4)[Neu5Ac(a2-3)]Gal(b1-4)Glc
How it was run: as §1

[35] = biological target: Gal(b1-3)GlcNAc
How it was run: as §1

[36] = biological target: Gal(b1-3)GlcNAc(a1-3)Gal(b1-4)GlcNAc
How it was run: as §1

[37] = biological target: Gal(b1-3)GlcNAc(a1-6)Gal(b1-4)GlcNAc
How it was run: as §1

[38] = biological target: Gal(b1-3)GlcNAc(b1-2)Man
How it was run: as §1

B1: CC1G-11630 (Coprinopsis cinerea), A8P462 (protein)
chain: MTTEAKIKLKAVVYWELVFDYDNSSNTGEITQSYTVKISQTSTRSTFASEVSTTTIDTLTKNNQEVDVGASYGAISANVSASWEHSEEVNNMLEKTTQTSTEDTYTVETEETRSYTIGPGGMLSLFQKHFSGPGMHVAFDVFTTDLELAKERTEIDIDVDVEAIRFVREIRVVYTDIMSEAPGDHVREINGKNPDINYGFNGKFVWLVPEQTRKTAQALTNVEFVSQAESDDRYWDLAAGAGGSNRYLIPVYDTNNKDKIYELALWRSDSYITHDKVKAAGWSGTTGDINSGRGGTYLNLVWKTRHAY
- glycan array binding signal (z-score) [1]: -0.124
- glycan array binding signal (z-score) [2]: 6.02
- glycan array binding signal (z-score) [3]: 0.001
- glycan array binding signal (z-score) [4]: 1.44
- glycan array binding signal (z-score) [5]: -0.316
- glycan array binding signal (z-score) [6]: -0.298
- glycan array binding signal (z-score) [7]: 0.161
- glycan array binding signal (z-score) [8]: 0.07
- glycan array binding signal (z-score) [9]: -0.108
- glycan array binding signal (z-score) [10]: -0.486
- glycan array binding signal (z-score) [11]: -0.043
- glycan array binding signal (z-score) [12]: -0.065
- glycan array binding signal (z-score) [13]: -0.602
- glycan array binding signal (z-score) [14]: -0.254
- glycan array binding signal (z-score) [15]: 0.72
- glycan array binding signal (z-score) [16]: -0.128
- glycan array binding signal (z-score) [17]: -0.464
- glycan array binding signal (z-score) [18]: -0.123
- glycan array binding signal (z-score) [19]: 0.088
- glycan array binding signal (z-score) [20]: -0.231
- glycan array binding signal (z-score) [21]: 0.102
- glycan array binding signal (z-score) [22]: -0.489
- glycan array binding signal (z-score) [23]: -0.172
- glycan array binding signal (z-score) [24]: 0.156
- glycan array binding signal (z-score) [25]: 0.137
- glycan array binding signal (z-score) [26]: -0.364
- glycan array binding signal (z-score) [27]: -0.38
- glycan array binding signal (z-score) [28]: -0.111
- glycan array binding signal (z-score) [29]: -0.477
- glycan array binding signal (z-score) [30]: -0.414
- glycan array binding signal (z-score) [31]: -0.936
- glycan array binding signal (z-score) [32]: -0.375
- glycan array binding signal (z-score) [33]: -0.195
- glycan array binding signal (z-score) [34]: -0.229
- glycan array binding signal (z-score) [35]: -0.809
- glycan array binding signal (z-score) [36]: -0.437
- glycan array binding signal (z-score) [37]: -0.556
- glycan array binding signal (z-score) [38]: -0.642
